# Where a name gives a salt, the structure may show the parent alone. Read-outs that look alike come from different tables or passages of the source.
# Columns and labels:
# human NTCP [1] = target: T1, human NTCP (Homo sapiens, UniProt Q14973); assay: Screening taurocholate uptake assay (96-well, [14C]taurocholate, 10 µM drug); details: for remaining activity at 10 µM: 10 min, read-out: %NTCP activity
# T1 sequence (Q14973 1-349): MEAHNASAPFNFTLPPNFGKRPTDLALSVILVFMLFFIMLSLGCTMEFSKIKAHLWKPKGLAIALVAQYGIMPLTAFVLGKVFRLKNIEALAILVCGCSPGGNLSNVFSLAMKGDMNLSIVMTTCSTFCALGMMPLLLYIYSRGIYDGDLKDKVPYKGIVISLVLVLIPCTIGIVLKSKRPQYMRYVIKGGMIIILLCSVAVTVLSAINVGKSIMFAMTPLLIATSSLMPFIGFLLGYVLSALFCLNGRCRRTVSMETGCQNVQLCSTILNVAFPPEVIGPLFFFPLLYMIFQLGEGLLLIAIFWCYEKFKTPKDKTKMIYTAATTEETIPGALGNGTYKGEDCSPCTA
# human NTCP [2] = target: T1, human NTCP; assay: Screening fluorescent competitive Myrcludex B-FITC binding assay (96-well, 10 µM drug); details: for remaining activity at 10 µM: 0.5 h; for %NTCP binding: Prestwick library screen, 10 µM drug, Myrcludex B-FITC binding
# [3] = read-out: %NTCP binding, screen, 10 µM drug, Myrcludex B-FITC binding
# [4] = Prestwick library screen, 10 µM drug, [14C]taurocholate uptake
SMILES,remaining activity at 10 µM (human NTCP [1]) [%],remaining activity at 10 µM (human NTCP [2]; read-out: %NTCP binding) [%],further results
Cc1onc(-c2ccccc2)c1-c1ccc(S(N)(=O)=O)cc1 [Valdecoxib],107,54.2,
CN1CCC(=C2c3ccccc3Sc3ccccc32)CC1 [Pimethixene maleate],35.1,75.4,
CN1Cc2c(N)cccc2C(c2ccccc2)C1 (stereo not shown) [Nomifensine maleate],67.5,80.4,
CN(C)C(=N)N=C(N)N [Metformin hydrochloride],157,119,
Nc1c2ccccc2nc2ccccc12 [Aminacrine],79.5,88.6,
CCOC(=O)C1=C(C)NC(C)=C(C(=O)OCC)C1c1ccccc1/C=C/C(=O)OC(C)(C)C [Lacidipine],115,84.5,
O=C(NCCO[N+](=O)[O-])c1cccnc1 [Nicorandil],57,95.2,
NS(=O)(=O)c1cc(Cl)c(Cl)c(S(N)(=O)=O)c1 [Dichlorphenamide],110,107,
C=C1C[C@H]2[C@@H]3C=C(C)C4=CC(=O)CC[C@]4(C)[C@H]3CC[C@]2(C)[C@@]1(OC(C)=O)C(C)=O [Melengestrol acetate],51.5,89.2,
COc1cc(C(=O)N2CCOCC2)cc(OC)c1OC [Trimetozine],113,105,
CC(C)C(=O)Nc1ccc([N+](=O)[O-])c(C(F)(F)F)c1 [Flutamide],91.1,63.5,
c1ccc2c(c1)CCCC2C1=NCCN1 (stereo not shown) [Tetrahydrozoline hydrochloride],88.5,90.2,
CC[C@H](C)C(=O)O[C@H]1CCC=C2C=C[C@H](C)[C@H](CC[C@@H]3C[C@@H](O)CC(=O)O3)[C@H]21 [Mevastatin],73.3,84.7,
C[N+]12CCC(CC1)C(OC(=O)C(O)(c1ccccc1)c1ccccc1)C2 (stereo not shown) [Clidinium bromide],81.8,118,
COC(=O)CCc1ccc(OCC(O)CNC(C)C)cc1 (stereo not shown) [Esmolol hydrochloride],75.4,97.4,
COC1=CC(=O)C[C@@H](C)[C@]12Oc1c(Cl)c(OC)cc(OC)c1C2=O [Griseofulvin],85.5,44.7,
CC(C)[C@H]1CC[C@H](C(=O)N[C@H](Cc2ccccc2)C(=O)O)CC1 [Nateglinide],83,85.5,
Cc1onc(-c2ccccc2)c1C(=O)N[C@@H]1C(=O)N2[C@@H]1SC(C)(C)[C@@H]2C(=O)[O-].[Na+] [Oxacillin sodium],,,%NTCP activity (human NTCP [1]): 103.176%; %NTCP binding (human NTCP [2]): 82.1995%
C[C@@H](O)[C@H]1C(=O)N2C(C(=O)O)=C(SCCN=CN)C[C@H]12 [Imipenem],62.1,69.3,
CCC1(c2ccccc2)NC(=O)N(C)C1=O (stereo not shown) [Mephenytoin],146,78.1,
Cn1c(=O)c2c(ncn2CC2OCCO2)n(C)c1=O [Doxofylline],133,80.7,
NC[C@H]1O[C@H](O[C@H]2[C@H](O)[C@@H](O[C@H]3O[C@H](CO)[C@@H](O)[C@H](N)[C@H]3O)[C@H](N)C[C@@H]2N)[C@H](N)C[C@@H]1O [Tobramycin],70.8,79.4,
COc1ccc2c(c1)c(CC(=O)OCC(=O)O)c(C)n2C(=O)c1ccc(Cl)cc1 [Acemetacin],53.2,56.6,
CNC1(C)C2CCC(C2)C1(C)C (stereo not shown) [Mecamylamine hydrochloride],86.9,95.4,
C/C=C(/C(=C/C)c1ccc(O)cc1)c1ccc(O)cc1 [Dienestrol],92.5,51.3,
CCC(=O)O[C@H]1CC[C@H]2[C@@H]3CCC4=CC(=O)CC[C@]4(C)[C@H]3CC[C@]12C [Testosterone propionate],88.3,57.6,
C[C@H](Cc1cc2c(c(C(N)=O)c1)N(CCCO)CC2)NCCOc1ccccc1OCC(F)(F)F [Silodosin],72.9,91.7,

SMILES,remaining activity at 10 µM (human NTCP [1]) [%],remaining activity at 10 µM (human NTCP [2]; read-out: %NTCP binding) [%],further results
CC(C)c1c(CN(C)C(C)Cc2ccccc2)n(C)n(-c2ccccc2)c1=O (stereo not shown) [Famprofazone],88.9,,remaining activity at 10 µM (human NTCP [2]; [3]): 75.7%
CC(=O)O[C@]1(C(C)=O)CC[C@H]2[C@@H]3C=C(C)C4=CC(=O)CC[C@]4(C)[C@H]3CC[C@@]21C [Megestrol acetate],109,82.9,
CCn1cc(C(=O)O)c(=O)c2cc(F)c(N3CCNC(C)C3)c(F)c21 (stereo not shown) [Lomefloxacin hydrochloride],139,73.1,
O=C(O)Cc1ccccc1Nc1c(Cl)cccc1Cl [Diclofenac sodium],106,91.9,
CO[C@@H]1[C@@H](OC(N)=O)[C@@H](O)[C@H](Oc2ccc3c([O-])c(NC(=O)c4ccc(O)c(CC=C(C)C)c4)c(=O)oc3c2C)OC1(C)C.[Na+] [Novobiocin sodium salt],,,%NTCP activity (human NTCP [1]; [4]): 108.777%; %NTCP binding (human NTCP [2]): 115.783%
Clc1ccc(C(Cn2ccnc2)OCc2c(Cl)cccc2Cl)c(Cl)c1 (stereo not shown) [Isoconazole],67,91.9,
CCN1CCCC1CNC(=O)c1cc(S(=O)(=O)CC)c(N)cc1OC (stereo not shown) [Amisulpride],102,88,
CN(C)CCCO[C@@H]1[C@H]2OC(C)(C)O[C@H]2O[C@@H]1[C@H](O)CO [Amiprilose hydrochloride],111,86.9,
CCN[C@H]1CN(CCCOC)S(=O)(=O)c2sc(S(N)(=O)=O)cc21 [Brinzolamide],72.6,61,
CO[C@H]1/C=C/O[C@@]2(C)Oc3c(C)c(O)c4c(c3C2=O)C2=NC3(CCN(CC(C)C)CC3)NC2=C(NC(=O)/C(C)=C\C=C\[C@H](C)[C@H](O)[C@@H](C)[C@@H](O)[C@@H](C)[C@H](OC(C)=O)[C@@H]1C)C4=O [Rifabutin],107,82.4,
Nc1nc(/C(=C/CC(=O)O)C(=O)N[C@@H]2C(=O)N3C(C(=O)O)=CCS[C@H]23)cs1 [Ceftibuten],124,83.9,
COc1c(N2CCNC(C)C2)c(F)cc2c(=O)c(C(=O)O)cn(C3CC3)c12 (stereo not shown) [Gatifloxacin],85.5,119,
CCS(=O)(=O)CCn1c([N+](=O)[O-])cnc1C [Tinidazole],85.5,90.4,
O=C(c1ccccc1)c1ccc2n1CCC2C(=O)O (stereo not shown) [Ketorolac tromethamine],58,85.5,
COc1cc(C)c(/C=C/C(C)=C/C=C/C(C)=C/C(=O)O)c(C)c1C [Acitretin],65.7,,remaining activity at 10 µM (human NTCP [2]; [3]): 72.1%
COc1cccc2c1C(=O)c1c(O)c3c(c(O)c1C2=O)C[C@@](O)(C(C)=O)C[C@@H]3O[C@H]1C[C@H](N)[C@H](O)[C@H](C)O1 [Daunorubicin hydrochloride],53.6,,"remaining activity at 10 µM (human NTCP [2]; read-out: %NTCP binding, Prestwick library screen, Myrcludex B-FITC binding, 10 µM drug): 97.8%"
CCN1C(=O)NC(c2ccccc2)C1=O (stereo not shown) [Ethotoin],122,87.8,
O=C(NCCN1CCOCC1)c1ccc(Cl)cc1 [Moclobemide],67.7,82.1,
CN(C)CCOc1ccc(/C(=C(/CCCl)c2ccccc2)c2ccccc2)cc1 [Toremifene],64.7,76.7,
N[C@@H]1CON=C1O [D-cycloserine],65.9,95.3,
COc1ccc(CN2CCNCC2)c(OC)c1OC [Trimetazidine dihydrochloride],61,,remaining activity at 10 µM (human NTCP [2]; [3]): 61%
Cl.O=C(O)/C=C/c1ccc(Cn2ccnc2)cc1 [Ozagrel hydrochloride],,,%NTCP activity (human NTCP [1]; [4]): 78.6871%; %NTCP binding (human NTCP [2]): 102.398%
C[C@@H]1C[C@H]2[C@@H]3C[C@H](F)C4=CC(=O)C=C[C@]4(C)[C@@]3(Cl)[C@@H](O)C[C@]2(C)[C@H]1C(=O)COC(=O)C(C)(C)C [Clocortolone pivalate],122,92.7,
Oc1c(I)cc(Cl)c2cccnc12 [Clioquinol],109,97.2,
CC[C@H]1OC(=O)[C@H](C)[C@@H](O[C@H]2C[C@@](C)(OC)[C@@H](O)[C@H](C)O2)[C@H](C)[C@@H](O[C@@H]2O[C@H](C)C[C@H](N(C)C)[C@H]2O)[C@](C)(O)C[C@@H](C)CN(C)[C@H](C)[C@@H](O)[C@]1(C)O [Azithromycin],103,106,
CC(=O)Oc1cc(C(F)(F)F)ccc1C(=O)O [Triflusal],65.6,77.2,

# — publication PMC5681660, “Reduced hepatitis B and D viral entry using clinically applied drugs as novel inhibitors of the bile acid transporter NTCP” (Scientific Reports, 2017)
